Our source for the relative growth values is the supplement of paper PMC9446081.

Each structure is given as a SMILES string. In all, about 39,000 compounds went through this assay and about 220 (0.56%) showed activity. The list shows a part of the results.
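Further: static incubation at 37 °C against the wild-type strain, values averaged over two biological replicates.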

In the test the test system is Escherichia coli K-12 BW25113. Put plainly: relative growth (OD600 normalised to plate interquartile mean) (fraction); higher = less growth inhibition, active = 0.2 or less. To be noted: 50 µM; LB; incubation time: overnight (16-24 h).
Take `Cc1c[nH]cn1`: the relative growth was inactive: 1.05.
The result for `CC1(C)C(=O)C=CC2(C)C1CC(O)C1(C)C2CCC2(C)C(c3ccoc3)OC(=O)C3OC321` (configuration not stated) reads inactive: 0.797; that for `C[C@H]1CN([C@@H](C)CO)C(=O)CCCn2cc(nn2)CO[C@@H]1CN(C)C(=O)Oc1cccc2ccccc12`, inactive: 1.01; that for `COC(=O)C[C@@H]1CC[C@@H]2NC[C@@H](O)COC[C@H]2O1`, inactive: 0.993.
As for `CC12CCC(=O)C=C1C=CC1C2CCC2(C)C1CCC2(O)CCC(=O)[O-].[K+]` (configuration not stated), the relative growth is inactive: 0.953.
As to `CC1(C)C(O)CC(O)C2(C)C1CC(=O)C1(C)C2CCC2(C)C(c3ccoc3)OC(=O)C3OC321` (configuration not stated), the relative growth is inactive: 1.
The result for `COC(C)(C)CCC[C@H](C)C/C=C/C(C)=C/C(=O)OC(C)C` reads inactive: 1.13; that for `CC(C)(O)C(Cl)(Cl)Cl`, inactive: 1.04; that for `CN(C)[C@@H]1C(=O)[C@H](C(N)=O)C(=O)[C@@]2(O)C(=O)[C@@H]3C(=O)c4c(O)cccc4[C@@](C)(O)[C@H]3C[C@@H]12`, active: 0.182.
For `CC1(C)CCC(C)(C)c2cc(-c3csc(CC#N)n3)ccc21`, the relative growth was inactive: 1.02.
Take `O=C(O)c1cc(Cl)ccc1Cl`: the relative growth is inactive: 0.989.
On to `CC(=CCn1c[n+](C)c2c(N)ncnc21)CCC1(C)C(C)CCC2(C)C(C)=CCCC21.[Cl-]` (configuration not stated), for which the relative growth is inactive: 1.07.
For `CNCCc1ccc(O)c(O)c1` the value was inactive: 0.991; for `CCN1C(=O)/C(=C/c2ccc[nH]2)C(=O)NC1=S`, inactive: 1.03; for `Cc1cc(N(C)C)ccc1C[C@@H](C)N`, inactive: 0.993.
`CC12CCC3C(CC=C4CC(O)CCC43C)C1CCC2=O` (configuration not stated): the relative growth is inactive: 0.867.
Take `COC(=O)[C@]1(Cc2ccccc2N=[N+]=[N-])N=C(c2ccc(OCCCO)cc2)O[C@@H]1c1ccccc1CN=[N+]=[N-]`: the relative growth was inactive: 0.948.
As for `CN1C[C@H](C(=O)N[C@]2(C)O[C@@]3(O)[C@@H]4CCCN4C(=O)[C@H](Cc4ccccc4)N3C2=O)C[C@@H]2c3cccc4[nH]cc(c34)C[C@H]21`, the relative growth is inactive: 0.947.
The result for `CC(=O)O[C@H]1C[C@@H](OC(C)=O)C(C)(C)[C@@H]2C[C@@H](OC(C)=O)[C@]3(C)[C@H](CC[C@@]4(C)[C@H](c5ccoc5)C[C@H]5O[C@@]534)[C@@]12C` reads inactive: 1.01; that for `CC(C)C[C@H]1C(=O)N2CCC[C@H]2[C@]2(O)O[C@](NC(=O)[C@@H]3C=C4c5cccc6[nH]c(Br)c(c56)C[C@H]4N(C)C3)(C(C)C)C(=O)N12`, inactive: 1.02; that for `COc1ccc(OC(=O)N(C)C[C@@H]2OCc3ccccc3-c3c(n(C)c4ccccc34)C(=O)N([C@@H](C)CO)C[C@H]2C)cc1`, inactive: 0.994.
With `[N-]=[N+]=NCc1ccccc1C[C@@]1(C(=O)N2CCCCC2)N=C(c2ccc(OCCCO)cc2)O[C@@H]1c1ccccc1N=[N+]=[N-]`, the relative growth was inactive: 1.01.
With `C=C(C)[C@H]1CN[C@H](C(=O)O)[C@@H]1CC(=O)O`, the relative growth was inactive: 0.864.
`CCCCCCCCCc1ccc(O)cc1`: the relative growth is inactive: 1.02.
For `COc1ccc(C(=O)O[C@H]2CC[C@@]3(C)[C@@H]4CC[C@H]5[C@]6(O)C[C@H](O)[C@@]7(O)[C@@H](CN8C[C@@H](C)CC[C@H]8[C@@]7(C)O)[C@]6(O)C[C@@]53O[C@]24O)cc1OC`, the relative growth is inactive: 1.02.
Consider `CN1[C@@H]2CC[C@H]1C[C@H](O)C2`, for which the relative growth was inactive: 1.
In the case of `O=C(O)C[C@@H]1CC[C@H]2NC[C@H](O)COC[C@@H]2O1`, the relative growth is inactive: 0.996.
For `Cn1ncnc2c(=O)n(C)c(=O)nc1-2` the value was active: 0.0341.
The result for `CCCCCCCCCCCCCCCC[n+]1ccccc1.[Cl-]` reads active: 0.0713; that for `Cl.c1cncc(C2CCCCN2)c1` (configuration not stated), inactive: 0.998.
For `COC(=O)[C@H]1O[C@@H]2C[C@H]3O[C@@H](n4cnc5c(N)ncnc54)[C@H](OC)[C@H]3O[C@@]2(O)[C@@H](O)[C@@H]1O` the value was inactive: 0.952; for `CC(CO)NC(=O)C1C=C2c3cccc4[nH]cc(c34)CC2N(C)C1.O=C(O)C=CC(=O)O` (configuration not stated), inactive: 1.1; for `CCN1C[C@H]2CN(Cc3nccn3C)C[C@H]2C1=O`, inactive: 0.995.
Turning to `O=C(O)CC[C@@H](CP(=O)(O)O)C(=O)O`, the relative growth was inactive: 0.997.
Take `C#CCOS(=O)OC1CCCCC1Oc1ccc(C(C)(C)C)cc1` (configuration not stated): the relative growth was inactive: 0.937.
The result for `CC12CCC3C(CCC4(O)CC(O)CCC34C=O)C1(O)CCC2C1=CC(=O)OC1` (configuration not stated) reads inactive: 0.972; that for `C[C@H]1CN([C@@H](C)CO)C(=O)CCCn2cc(nn2)CO[C@H]1CN(C)C(=O)Oc1ccc2ccccc2c1`, inactive: 0.988.
The result for `O=C1N[C@@H]2C(=C[C@H](O)[C@@H](O)[C@H]2O)c2cc3c(c(O)c21)OCO3` reads inactive: 0.913.
The result for `CC(C)[C@@H](Br)C(=O)NC(N)=O` reads inactive: 0.986; that for `C[N+](C)(C)CC(=O)[O-].Cl`, inactive: 0.997.
`N#CC[N+]12CCN(CC1)CC2`: the relative growth was inactive: 0.975.
Turning to `CC(C)[C@H]1CN2CCC[C@H]2[C@@]2(O)O[C@](CC(=O)[C@@H]3C=C4c5cccc6[nH]cc(c56)C[C@H]4N(C)C3)(C(C)C)C(=O)N12`, the relative growth was inactive: 0.997.
For `CC(=O)Nc1ccc(Cl)cc1C`, the relative growth was inactive: 0.999.
As for `CCC(COC(=O)c1cc(OC)c(OC)c(OC)c1)(c1ccccc1)N(C)C.O=C(O)C=CC(=O)O` (configuration not stated), the relative growth is inactive: 0.993.
For `CC1OC(OC2CC(O)C3(CO)C4C(O)CC5(C)C(C6=CC(=O)OC6)CCC5(O)C4CCC3(O)C2)C(O)C(O)C1O.O.O.O.O.O.O.O.O` (configuration not stated) the value was inactive: 1.01.
For the molecule `O=C(O)CCl`, the relative growth was inactive: 0.992.
Regarding `CNC(=O)Oc1ccc2c(c1)C1(C)CCN(C)C1N2C.O=C(O)c1ccccc1O` (configuration not stated), the relative growth is inactive: 1.15.
As for `CN(C)C(=O)CN1C[C@H]2CON[C@@H]2C1`, the relative growth is inactive: 1.01.
As to `Cc1ccc2[nH]cc(C[C@@H](C)N)c2c1`, the relative growth was inactive: 1.03.
Consider `CC(=O)[O][Cd][O]C(C)=O`, for which the relative growth was inactive: 0.96.
Turning to `CCN1C[C@]2(C)CC[C@H](O)[C@@]34[C@@H]5C[C@H]6[C@H](O)[C@@H]5[C@](O)(C[C@@H]6OC)[C@](O)([C@@H](OC)[C@H]23)[C@@H]14`, the relative growth is inactive: 0.988.
For `CCC[C@@H](CN)c1ccc(F)cc1`, the relative growth is inactive: 1.03.
